In all, about 390,000 compounds went through this assay and about 4,700 (1.2%) were called active. This list was built around the results that the source calls inconclusive (neither active nor inactive); the mix of calls is not that of the screen. The call rests on the fitted dose curve; in most records, active means well fitted inhibition curve with a large enough effect; inconclusive means small, poorly fitted or top-dose-only effect, or another doubt; inactive means no such curve, though single readings can be large or run the other way. A potency beside an inconclusive call is a rough fit, not a confirmed value.
These compounds were tested against DNA polymerase eta (Homo sapiens) (UniProt Q9Y253) (assay: qHTS for Inhibitors of Polymerase Eta). Conditions: recombinant Pol eta, fluorescent DNA replication assay; series mostly up to 114 µM.
Sequence of UniProt Q9Y253 (Q9Y253 whole entry, looked up): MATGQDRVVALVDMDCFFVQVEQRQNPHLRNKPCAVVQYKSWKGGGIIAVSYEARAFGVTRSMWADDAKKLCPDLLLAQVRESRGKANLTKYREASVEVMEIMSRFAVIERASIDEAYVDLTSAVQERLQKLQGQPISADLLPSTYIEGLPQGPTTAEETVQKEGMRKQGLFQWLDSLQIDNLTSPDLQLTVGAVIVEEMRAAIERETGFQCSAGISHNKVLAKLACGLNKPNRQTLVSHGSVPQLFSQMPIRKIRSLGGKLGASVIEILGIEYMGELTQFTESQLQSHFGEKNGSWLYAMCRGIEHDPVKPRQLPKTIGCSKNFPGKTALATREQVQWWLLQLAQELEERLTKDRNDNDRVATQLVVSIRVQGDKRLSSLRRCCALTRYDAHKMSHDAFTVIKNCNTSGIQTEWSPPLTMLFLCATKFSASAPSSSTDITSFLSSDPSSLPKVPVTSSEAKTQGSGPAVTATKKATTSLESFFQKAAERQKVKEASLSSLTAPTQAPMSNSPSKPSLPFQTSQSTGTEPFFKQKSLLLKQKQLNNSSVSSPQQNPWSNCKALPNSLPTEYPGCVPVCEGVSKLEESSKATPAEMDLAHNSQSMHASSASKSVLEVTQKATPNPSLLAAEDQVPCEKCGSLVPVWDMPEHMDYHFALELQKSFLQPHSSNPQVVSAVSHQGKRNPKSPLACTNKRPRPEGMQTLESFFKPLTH
Outline: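 Fluorescent replication assay: 50 nM final substrate added after a 15 min room-temperature compound preincubation with 10 nM enzyme. Signal taken at 0 min and again at 10 min.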
Potency means the concentration at half of the fitted maximal effect; tags describe the fitted curve by direction and shape.

| Compound | Potency |
| --- | --- |
| CCOc1cccc(-c2cc(C(=O)N3N=C(C)CC3(O)C(F)F)c3ccccc3n2)c1 (configuration not stated) | inactive |
| CCCOc1ccc(C2C(C(=O)c3ccc(C)o3)=C(O)C(=O)N2Cc2ccco2)cc1 (configuration not stated) | inactive |
| Cc1ccc(C)c(S(=O)(=O)Nc2cc(SCC(=O)O)c(O)c3ccccc23)c1 | active: 22.4 µM |
| O=C(Nc1ccccc1)c1cccc(-c2nnc(-c3ccccc3)o2)c1 | inconclusive: 17.8 µM [inhibitor, partial curve, poor fit] |
| CCCCCCCCNC(=O)/C(C#N)=C/c1ccccc1[N+](=O)[O-] | inconclusive: 56.2 µM [inhibitor, partial curve, poor fit] |
| Cn1c(=O)c2[nH]c(CNCc3ccccc3Cl)nc2n(C)c1=O | inconclusive: 22.4 µM [inhibitor, full curve] |
| Cc1ccc2nc3c(cc(C(=O)NCc4ccco4)c(=N)n3Cc3ccco3)c(=O)n2c1 | inconclusive: 79.4 µM [inhibitor, partial curve] |
| O=C(Nc1ccc(S(=O)(=O)Nc2nccs2)cc1)/C(=C/c1ccccc1Cl)NC(=O)c1ccccc1 | inconclusive: 89.1 µM [inhibitor, single point] |
| Cc1ccc(Cn2c(C(CO)Nc3nc(-c4ccc(F)cc4)cs3)nc3ccccc32)cc1 (configuration not stated) | inconclusive: 79.4 µM [inhibitor, partial curve, poor fit] |
| COc1ccc(NC(=O)C2=C(C)Nc3ncnn3C2c2ccc[nH]2)cc1 (configuration not stated) | inconclusive: 100 µM [inhibitor, single point] |
| Cc1nnc(NC(=O)CCSCCC(=O)Nc2nnc(C)s2)s1 | active: 3.16 µM |
| O=c1c2[nH]c3cccc(Cl)c3c2ncn1Cc1ccncc1 | inconclusive: 39.8 µM [inhibitor, single point] |
| CCOC(=O)c1c(C)c(-c2ccccc2)n(CC(=O)Nc2cc(C)cc(C)c2)c1C | inactive |
| C=CCSC1=N/C(=C\c2cc(OCC)c(OC(C)=O)c([N+](=O)[O-])c2)C(=O)S1 | inconclusive: 15.8 µM [inhibitor, full curve] |
| COc1ccc(CCN(C)C(=O)C2CCN(Cc3ccc(C)cc3)CC2)cc1OC | inactive |
| COc1ccc2c(c1)OC[C@H]1[C@H]2N2C(=O)c3ccccc3NC(=O)[C@@]2(C)[C@H]1c1ccccc1 | inconclusive: 89.1 µM [inhibitor, partial curve, poor fit] |
| COCCCNC(=O)CCCn1c(=O)c2cccn2c2ccccc21 | inactive |
| Cc1cccc(C(=O)NNC(=O)c2cc3cc4ccccc4nc3s2)c1 | inconclusive: 20 µM [inhibitor, single point] |
| COc1ccc(N2CC(C(=O)Nc3nnc(SCCC4OCCO4)s3)CC2=O)cc1 (configuration not stated) | active: 35.5 µM |
| C=CCn1c(SCC(=O)Nc2c(C)n(C)n(-c3ccccc3)c2=O)nc2sc(C)c(-c3ccccc3)c2c1=O | inconclusive: 0.708 µM [inhibitor, full curve, poor fit] |
| CC(C)CCNC(=O)c1ccc2c(SCC(=O)O)c3c(nc2c1)CCCC3 | inconclusive: 22.4 µM [inhibitor, partial curve] |

| Compound | Potency |
| --- | --- |
| COc1ccc(NS(=O)(=O)c2cccc(C(=O)N/N=C(\C)c3ccc(-n4ccnc4)cc3)c2)cc1 | inconclusive: 20 µM [inhibitor, partial curve, poor fit] |
| CCCCCCc1nc(C(N)=O)c2[nH]c(=O)n(-c3ccc(OCC)cc3)c2n1 | inactive |
| O=C(Cn1ncc2c(=O)oc3ccccc3c21)N1CCN(c2ccc(Cl)cc2)CC1 | inactive |
| CSc1nsc(/C=C/Nc2cccc(Cl)c2)c1C#N | inconclusive: 1.58 µM [inhibitor, partial curve, poor fit] |
| CCOC(=O)C1CCCN(C(=O)c2cc(-c3ccco3)nc3ccccc23)C1 (configuration not stated) | active: 3.16 µM |
| COc1cccc2cc(-c3nnc(SCC(=O)Nc4nc(C)cs4)n3C)oc12 | inconclusive: 22.4 µM [inhibitor, single point] |
| Cc1ccc(-n2c(CCC(=O)O)ccc2-c2cccs2)cc1C | inconclusive: 25.1 µM [inhibitor, partial curve] |
| O=C(CCCOc1ccc(Cl)cc1Cl)NNC(=O)c1ccc(NC(=O)c2ccccc2)cc1 | inconclusive: 11.2 µM [inhibitor, partial curve] |
| COc1ccc(OCC(=O)Nc2nnc(S(=O)(=O)N3CCCCCC3)s2)cc1 | inconclusive: 50.1 µM [inhibitor, partial curve] |
| CCc1ccccc1NC(=O)c1cnccn1 | inconclusive: 15.8 µM [inhibitor, partial curve, poor fit] |
| C=CCNC(=O)CSc1cc([N+](=O)[O-])cc(S(=O)(=O)Cc2ccccc2)c1 | inconclusive: 22.4 µM [inhibitor, partial curve, poor fit] |
| CCC(CO)[n+]1c(C)cc(/C=C2\Sc3ccccc3N2Cc2ccccc2)cc1C (configuration not stated) | inconclusive: 20 µM [inhibitor, full curve] |
| C#CCn1c(=NC(=O)c2ccc(Br)s2)sc2cc(NC(C)=O)ccc21 | inconclusive: 1.12 µM [inhibitor, full curve, poor fit] |
| CC1(C)C(=O)N(CC(=O)Nc2ccc(Cl)cc2)c2ccccc21 | inactive |
| COc1ccccc1-c1nnc(Nc2nc3c(OC)cccc3s2)o1 | inconclusive: 14.1 µM [inhibitor, partial curve, poor fit] |
| CCC(C)NC(=O)c1cc2c(Cl)nc3ccc(C)cc3c2s1 (configuration not stated) | inactive |
| O=C(Nc1nccs1)c1ccc2ccccc2c1 | inactive |
| CCN(CC)S(=O)(=O)c1cccc(-c2nnc(SCC(=O)NCCC3=CCCCC3)n2N)c1 | inconclusive: 2.51 µM [inhibitor, partial curve, poor fit] |
| CCc1nnc(NS(=O)(=O)c2ccc(Nc3ccc([N+](=O)[O-])c4nonc34)cc2)s1 | inconclusive: 50.1 µM [inhibitor, partial curve] |
| CN1CCN(CC(=O)Nc2sc3c(c2C(=O)Nc2ccccc2)CCCC3)CC1 | inactive |
| CCOC(=O)c1nn(-c2ccc(F)cc2)c(=O)cc1OCC(=O)Nc1ccc(OCC)cc1 | inconclusive: 44.7 µM [inhibitor, partial curve] |
